Source: PubChem BioAssay (NCI)
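Results reflect a 48-hour exposure of cells in 96-well plates to compound at five concentrations. Abbreviation: GI50, concentration required for 50% inhibition of growth. TGI: concentration producing complete growth inhibition.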

Tested on: NCI-H322M lung
Assay: inhibition of tumour cell growth, NCI panel, 48 h

SMILES | GI50 [µM] | TGI [µM]
CN1CCN(c2ccc(C(=O)/C=C/c3cc(C(F)(F)F)cc(C(F)(F)F)c3)cc2)CC1 | 1.65 | 3.43
CNC(=O)c1cc(Oc2ccc3nc(NC(=O)Nc4cccc(OC(F)(F)F)c4)sc3c2)ccn1 | 3.61 | > 100
c1ccc(C(=C(c2ccc(OCCN3CCCCC3)cc2)c2ccc(OCCN3CCCCC3)cc2)C2CCCC2)cc1 | 6.25 | > 18
CCCn1c(=O)c2[nH]c(-c3ccc(OCc4nc5ccc(C)cc5[nH]4)cc3)nc2n(CCC)c1=O | 15.8 | > 100
CSc1ccc(C(=O)Nc2ccc3nnn(/C(C#N)=C/c4ccccn4)c3c2)cc1 | 4.46 | 16.3
